{"source": "the supplement of paper PMC4166925", "note": "± gives the standard deviation of the averaged measurements. Over roughly 33,000 sequences, “E-score (dimensionless, -0.5 to 0.5)” has its median near -0.049; the highest 2% begin near 0.37. Some of the results follow."}
{"tested_on": "T1, PmTbr T-box DNA-binding domain (GST fusion)", "T1 sequence": "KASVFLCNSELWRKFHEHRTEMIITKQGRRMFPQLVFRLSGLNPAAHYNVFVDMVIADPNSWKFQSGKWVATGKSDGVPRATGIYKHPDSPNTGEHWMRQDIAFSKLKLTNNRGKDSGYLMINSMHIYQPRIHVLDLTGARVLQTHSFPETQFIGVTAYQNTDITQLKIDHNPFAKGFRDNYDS", "assay": "PBM E-score of 8-mer (E-score (dimensionless, -0.5 to 0.5)); Tbr is Tbrain of the sea star Patiria miniata (Pm) or the sea urchin Strongylocentrotus purpuratus (Sp); higher = stronger binding preference; most listed sequences are background and not binding sites", "conditions": "the construct has about 5 more residues each side", "procedure,_shortened": "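Primer extension turned Universal Agilent oligonucleotide arrays double-stranded. They were incubated with 200 nM protein in PBS (pH 7.5); the protein was a GST-fused Tbr T-box DNA-binding domain expressed in BL21 E. coli at 20 °C and purified on glutathione. Every ungapped 8-mer was scored from the scanned, quantified probe intensities, and the Universal PBM Analysis Suite gave each an enrichment E-score averaged over duplicate arrays.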"}
{"sequence": "CCCCAACC", "PBM E-score of 8-mer": "-0.154 ± 0.094"}
{"sequence": "GGACGTCC", "PBM E-score of 8-mer": "-0.186 ± 0.014"}
{"sequence": "GAAATGCC", "PBM E-score of 8-mer": "-0.0296 ± 0.07"}
{"sequence": "AGAAAGAC", "PBM E-score of 8-mer": "-0.173 ± 0.0084"}
{"sequence": "CAGAACAG", "PBM E-score of 8-mer": "-0.265 ± 0.071"}
{"sequence": "GATTTCGA", "PBM E-score of 8-mer": "0.0762 ± 0.0093"}
{"sequence": "AGCGGTGA", "PBM E-score of 8-mer": "0.053 ± 0.09"}
{"sequence": "ACTAAGAG", "PBM E-score of 8-mer": "-0.175 ± 0.022"}
{"sequence": "AGTAATAA", "PBM E-score of 8-mer": "-0.221 ± 0.058"}
{"sequence": "AGGCCGTA", "PBM E-score of 8-mer": "-0.274 ± 0.029"}
{"sequence": "CGCATGCA", "PBM E-score of 8-mer": "-0.101 ± 0.0039"}
{"sequence": "CAAGTAGG", "PBM E-score of 8-mer": "0.0921 ± 0.02"}
{"sequence": "GACCTCTA", "PBM E-score of 8-mer": "-0.259 ± 0.07"}
{"sequence": "AAACACGC", "PBM E-score of 8-mer": "0.125 ± 0.0076"}
{"sequence": "ACGTCGCG", "PBM E-score of 8-mer": "0.181 ± 0.03"}
{"sequence": "GTCATAAA", "PBM E-score of 8-mer": "-0.0049 ± 0.031"}
{"sequence": "GACGATCA", "PBM E-score of 8-mer": "-0.244 ± 0.094"}
{"sequence": "AACATCGC", "PBM E-score of 8-mer": "0.0637 ± 0.016"}
{"sequence": "GCTTTGGA", "PBM E-score of 8-mer": "-0.0985 ± 0.026"}
{"sequence": "CAACTCCA", "PBM E-score of 8-mer": "0.0575 ± 0.041"}
{"sequence": "AATTGGAT", "PBM E-score of 8-mer": "-0.0858 ± 0.095"}
{"sequence": "ATTAAAAT", "PBM E-score of 8-mer": "-0.0591 ± 0.16"}
{"sequence": "CTTATTCA", "PBM E-score of 8-mer": "-0.00801 ± 0.053"}
{"sequence": "TAATAAGA", "PBM E-score of 8-mer": "-0.142 ± 0.073"}
{"sequence": "CGGGACTC", "PBM E-score of 8-mer": "-0.18 ± 0.045"}
{"sequence": "ATCCCTGG", "PBM E-score of 8-mer": "-0.0457 ± 0.025"}
{"sequence": "CGTCGAGA", "PBM E-score of 8-mer": "-0.0587 ± 0.027"}
{"sequence": "AATAACTA", "PBM E-score of 8-mer": "0.0446 ± 0.031"}
{"sequence": "CGGAGTAA", "PBM E-score of 8-mer": "-0.121 ± 0.0036"}
{"sequence": "GACGTGGC", "PBM E-score of 8-mer": "0.167 ± 0.049"}
{"sequence": "AGAAATAT", "PBM E-score of 8-mer": "0.0647 ± 0.097"}
{"sequence": "AAAACATT", "PBM E-score of 8-mer": "-0.0945 ± 0.013"}
{"sequence": "CCATTAAG", "PBM E-score of 8-mer": "-0.268 ± 0.021"}
{"sequence": "GCAATGAC", "PBM E-score of 8-mer": "-0.0287 ± 0.0011"}
{"sequence": "TCCCACAA", "PBM E-score of 8-mer": "-0.0709 ± 0.024"}
{"sequence": "CGGTAGTC", "PBM E-score of 8-mer": "-0.405 ± 0.034"}
{"sequence": "GAAGTCTA", "PBM E-score of 8-mer": "-0.228 ± 0.024"}
{"sequence": "ACCAGGCG", "PBM E-score of 8-mer": "0.175 ± 0.0061"}
{"sequence": "ATGCAAGA", "PBM E-score of 8-mer": "-0.329 ± 0.1"}
{"sequence": "AGGATAAT", "PBM E-score of 8-mer": "-0.1381 ± 0.0012"}
{"sequence": "AGCATCGA", "PBM E-score of 8-mer": "-0.142 ± 0.058"}
{"sequence": "AACATCTT", "PBM E-score of 8-mer": "-0.12 ± 0.07"}
{"sequence": "TGTGCGAA", "PBM E-score of 8-mer": "0.448 ± 0.0066"}
{"sequence": "CTGCCCGC", "PBM E-score of 8-mer": "-0.146 ± 0.041"}
{"sequence": "GCACGGGA", "PBM E-score of 8-mer": "-0.0981 ± 0.01"}
{"sequence": "GACCTTTA", "PBM E-score of 8-mer": "-0.207 ± 0.088"}
{"sequence": "GAAGCGTA", "PBM E-score of 8-mer": "-0.145 ± 0.051"}
{"sequence": "CGGTTATA", "PBM E-score of 8-mer": "-0.031 ± 0.032"}
{"sequence": "AATCTATC", "PBM E-score of 8-mer": "-0.00253 ± 0.044"}
{"sequence": "AACTGGAT", "PBM E-score of 8-mer": "0.0381 ± 0.023"}
{"sequence": "ACTGAGGC", "PBM E-score of 8-mer": "0.0455 ± 0.032"}
{"sequence": "AATACTCC", "PBM E-score of 8-mer": "-0.103 ± 0.0049"}
{"sequence": "CAGTGCCC", "PBM E-score of 8-mer": "-0.185 ± 0.073"}
{"sequence": "CTTATCCC", "PBM E-score of 8-mer": "-0.104 ± 0.028"}
{"sequence": "CGTCGGGC", "PBM E-score of 8-mer": "0.0223 ± 0.047"}
{"sequence": "GAACTAAC", "PBM E-score of 8-mer": "0.162 ± 0.014"}
{"sequence": "GCCTCTAA", "PBM E-score of 8-mer": "-0.0699 ± 0.027"}
{"sequence": "CGATAACC", "PBM E-score of 8-mer": "0.221 ± 0.032"}
{"sequence": "CCTTTCCA", "PBM E-score of 8-mer": "-0.0302 ± 0.05"}
{"sequence": "ATCCATCA", "PBM E-score of 8-mer": "-0.125 ± 0.087"}
{"sequence": "GGTCAGAC", "PBM E-score of 8-mer": "-0.225 ± 0.018"}
{"sequence": "ATTTTGTC", "PBM E-score of 8-mer": "0.194 ± 0.045"}
{"sequence": "GGCGAGAC", "PBM E-score of 8-mer": "0.231 ± 0.019"}
{"sequence": "CAGTCGAA", "PBM E-score of 8-mer": "-0.214 ± 0.037"}
{"sequence": "AAGTTATT", "PBM E-score of 8-mer": "-0.22 ± 0.052"}
{"sequence": "ACGCTAAA", "PBM E-score of 8-mer": "0.191 ± 0.064"}
{"sequence": "GGCCATCA", "PBM E-score of 8-mer": "-0.292 ± 0.044"}
{"sequence": "ACCTTCAT", "PBM E-score of 8-mer": "0.201 ± 0.039"}
{"sequence": "GATCTGAA", "PBM E-score of 8-mer": "-0.0563 ± 0.034"}
{"sequence": "CCTAGGAA", "PBM E-score of 8-mer": "-0.3269 ± 0.0029"}
{"sequence": "ATAAAGTG", "PBM E-score of 8-mer": "0.235 ± 0.088"}
{"sequence": "AATGGAAT", "PBM E-score of 8-mer": "-0.251 ± 0.029"}
{"sequence": "CCTTTACG", "PBM E-score of 8-mer": "-0.243 ± 0.017"}
{"sequence": "CTGAAGCC", "PBM E-score of 8-mer": "-0.175 ± 0.013"}
{"sequence": "GATGTCTA", "PBM E-score of 8-mer": "-0.212 ± 0.006"}
{"sequence": "CAGTACGC", "PBM E-score of 8-mer": "-0.151 ± 0.055"}
{"sequence": "CTGACTCA", "PBM E-score of 8-mer": "-0.0288 ± 0.013"}
{"sequence": "ATAGTTTC", "PBM E-score of 8-mer": "-0.139 ± 0.033"}
{"sequence": "CAATGTGG", "PBM E-score of 8-mer": "0.0718 ± 0.076"}
{"sequence": "ACTAGATA", "PBM E-score of 8-mer": "-0.12 ± 0.015"}
{"sequence": "CAGATGAC", "PBM E-score of 8-mer": "-0.0423 ± 0.069"}
{"sequence": "AACGGCAT", "PBM E-score of 8-mer": "-0.154 ± 0.03"}
{"sequence": "ACAACAGT", "PBM E-score of 8-mer": "0.0982 ± 0.0056"}
{"sequence": "ACTCAAAC", "PBM E-score of 8-mer": "-0.241 ± 0.066"}
{"sequence": "GACTTACC", "PBM E-score of 8-mer": "-0.15 ± 0.018"}
{"sequence": "CTCAGCGC", "PBM E-score of 8-mer": "0.119 ± 0.015"}
{"sequence": "GGGGGGTA", "PBM E-score of 8-mer": "-0.279 ± 0.061"}
{"sequence": "AACAATTG", "PBM E-score of 8-mer": "0.2 ± 0.064"}
{"sequence": "GGCCCCCA", "PBM E-score of 8-mer": "-0.286 ± 0.064"}
{"sequence": "CTACTAGC", "PBM E-score of 8-mer": "0.0573 ± 0.034"}
{"sequence": "ACGACCCC", "PBM E-score of 8-mer": "-0.153 ± 0.12"}
{"sequence": "GATGCTGA", "PBM E-score of 8-mer": "-0.0763 ± 0.018"}
{"sequence": "ACGGAAAG", "PBM E-score of 8-mer": "-0.123 ± 0.013"}
{"sequence": "GACGCTAC", "PBM E-score of 8-mer": "0.0711 ± 0.045"}
{"sequence": "ACTAACCT", "PBM E-score of 8-mer": "-0.0151 ± 0.031"}
{"sequence": "CTTACCAA", "PBM E-score of 8-mer": "-0.152 ± 0.0032"}
{"sequence": "CTATACCC", "PBM E-score of 8-mer": "-0.123 ± 0.056"}
{"sequence": "TGTCACAA", "PBM E-score of 8-mer": "0.369 ± 0.04"}
{"sequence": "CCAACACG", "PBM E-score of 8-mer": "0.274 ± 0.0077"}
{"sequence": "GCCTGTCC", "PBM E-score of 8-mer": "-0.168 ± 0.029"}
{"sequence": "CGGACGAG", "PBM E-score of 8-mer": "-0.166 ± 0.0031"}
{"sequence": "AATGAATA", "PBM E-score of 8-mer": "-0.109 ± 0.078"}
{"sequence": "GTACCGCA", "PBM E-score of 8-mer": "-0.144 ± 0.035"}
{"sequence": "TCTTCACA", "PBM E-score of 8-mer": "0.377 ± 0.015"}
{"sequence": "CGCACAAC", "PBM E-score of 8-mer": "0.119 ± 0.1"}
{"sequence": "ATCTCCGA", "PBM E-score of 8-mer": "-0.283 ± 0.029"}
{"sequence": "GTGATATA", "PBM E-score of 8-mer": "0.228 ± 0.0044"}
{"sequence": "CACCTAGC", "PBM E-score of 8-mer": "0.418 ± 0.0047"}
{"sequence": "ACTGAGTC", "PBM E-score of 8-mer": "-0.0611 ± 0.06"}
{"sequence": "ATGAAGCC", "PBM E-score of 8-mer": "-0.291 ± 0.026"}
